Experimental findings from PMC9911399, “Two distinct binding modes provide the RNA-binding protein RbFox with extraordinary sequence specificity” are described below.

Sequences and labels used below:
B1: UUCGUUA (DNA:RNA)
RNA: GGGAGACCGGAAUUCAGAUUGUCCUUCGUUAUUAAAUCCCGUCGUAGCCACCA
DNA 1: CAATCTGAATTCCGGTCTCCC
DNA 2: TGGTGGCTACGACGGGATT
B2: UUUCCCC (DNA:RNA)
RNA: B1 RNA with C27U, G28C, U29C, U30C, A31C
DNA 1: CAATCTGAATTCCGGTCTCCC
DNA 2: TGGTGGCTACGACGGGATT
B3: AUUCCAG (DNA:RNA)
RNA: B1 RNA with U25A, C27U, G28C, U29C, U30A, A31G
DNA 1: CAATCTGAATTCCGGTCTCCC
DNA 2: TGGTGGCTACGACGGGATT
B4: UUCCGAA (DNA:RNA)
RNA: B1 RNA with G28C, U29G, U30A
DNA 1: CAATCTGAATTCCGGTCTCCC
DNA 2: TGGTGGCTACGACGGGATT
B5: CCACGGC (DNA:RNA)
RNA: GGGAGACCGGAAUUCAGAUUGUCCCCACGGCUUAAAUCCCGUCGUAGCCACCA
DNA 1: CAATCTGAATTCCGGTCTCCC
DNA 2: TGGTGGCTACGACGGGATT
B6: UUAGCCC (DNA:RNA)
RNA: B1 RNA with C27A, U29C, U30C, A31C
DNA 1: CAATCTGAATTCCGGTCTCCC
DNA 2: TGGTGGCTACGACGGGATT
B7: AACCUUA (DNA:RNA)
RNA: B1 RNA with U25A, U26A, G28C
DNA 1: CAATCTGAATTCCGGTCTCCC
DNA 2: TGGTGGCTACGACGGGATT
B8: UUCGUGA (DNA:RNA)
RNA: B1 RNA with U30G
DNA 1: CAATCTGAATTCCGGTCTCCC
DNA 2: TGGTGGCTACGACGGGATT
B9: GCGCACC (DNA:RNA)
RNA: B5 RNA with C25G, A27G, G29A, G30C
DNA 1: CAATCTGAATTCCGGTCTCCC
DNA 2: TGGTGGCTACGACGGGATT

Changes are numbered by the printed parent chain; changes in the protein carry UniProt numbers. This is one part of the list.

This test concerns the target T1, RBFOX1 RRM RbFoxmut (Fox-RRM*) (Homo sapiens, UniProt Q9NWB1 109-208, R118D;E147R;N151S;E152T).
T1 sequence: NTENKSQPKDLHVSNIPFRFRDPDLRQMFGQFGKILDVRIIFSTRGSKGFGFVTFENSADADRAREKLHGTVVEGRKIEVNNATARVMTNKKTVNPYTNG
As to the kind of experiment: EMSA; HiTS-Eq, 1 nM pool, 10 min; buffer printed only for the single-RNA assays: 10 mM Tris pH 7.5, 150 mM NaCl, 3.4 mM EDTA, 0.001% NP-40, 30 C. The settings on record: tags: His6 N-terminal (pET28a); label: 5' 32P. Put shortly: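 Purified RbFox RRM (wild type or mutant) was equilibrated for 10 min in 50 µL with 1 nM of a 5′-radiolabelled pool of RNA with 7 randomized nucleotides, its flanks annealed to DNA oligonucleotides, across increasing protein concentrations. Free RNA was separated by 8% native PAGE, excised, reverse-transcribed, PCR-barcoded and sequenced on an Illumina HiSeq 2500. Relative association constants came from read-count changes of each variant against the control reaction, normalised to the cognate motif.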
Turning to B1, the binding signal was 0.129 KA relative to UGCAUGU. On to B2, for which the binding signal is 0.0448 KA relative to UGCAUGU. For B3, the binding signal is 0.0883 KA relative to UGCAUGU.

In the case of B4, the binding signal is 0.105 KA relative to UGCAUGU. In the case of B5, the binding signal is 0.0761 KA relative to UGCAUGU. The figure for B6 is 0.0877 KA relative to UGCAUGU; for B7 it is 0.143 KA relative to UGCAUGU. With B8, the binding signal was 0.0766 KA relative to UGCAUGU.

For B9, the binding signal is 0.128 KA relative to UGCAUGU.
